# Measured values reported in the supplement of paper PMC11417369.
# ± gives the standard deviation of the averaged measurements. The list shows a part of the results.
# System: PfAP2-EXP AP2 domain (GST-tagged)
# Experiment: gcPBM binding intensity (ln(normalized median fluorescence intensity)); higher = stronger DNA binding
# Procedure, shortened: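 The binding buffer was 1× PBS containing 1% milk, 0.2 mg/ml BSA, 0.5% salmon testes DNA and 0.03% Triton X-100. In it, GST-tagged P. falciparum DNA-binding domains expressed in E. coli were applied for 1 h to an Agilent 4 × 180k array of primer-extended double-stranded 36-bp intergenic genomic probes plus negative controls. Binding intensity, read with Alexa488 anti-GST antibody and a 488 nm scan, is the highest Masliner-normalised natural-log median intensity across replicate spots of either probe orientation.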
row,Sequence,gcPBM binding intensity (ln)
1,ATATATATAAAATAAAGTACCCGTAAAACCTATATG [XGTACX_site6937],8.8 ± 0.4
2,AAAAAAAAAAAAAAAAAATAATAAAAAATAAAAAAA [GTGCAC_negctrl_site341],8.29 ± 0.19
3,TAATTTATAAATAATTGTACATAGTTTATTTAGATT [XGTACX_site4599],8.22 ± 0.4
4,TAATTATAAAAATAAAACAACCAAATTTGTTATATA [CACACA_negctrl_site750],8.32 ± 0.64
5,GAAAGGAAAAGTTGAACACACAAAGTAAACTATAAG [CACACA_site3535],8.88 ± 0.54
6,GACGACTATATTAATTGTACTCAATTTAAGCATAAT [XGTACX_site2750],8.44 ± 0.4
7,TATGTTAATCCTATTTGTACATATAATCGAATTAAA [XGTACX_site7090],8.26 ± 0.44
8,GCCATTAATTTATACACACACATTAAAATTTTTTAT [CACACA_site4575],8.89 ± 0.33
9,TAATGAAGATATATAACACACAAAAGTTATAAATAT [CACACA_site6678],8.64 ± 0.38
10,ATATATAATAATATATGTACATAATATTTTTTTTTT [XGTACX_site1941],8.15 ± 0.49
11,GCTATAAATACAGACGCACACATATACATACATATA [CACACA_site3329],8.77 ± 0.26
12,AAGAATATATAGGACACACATACAATAATAAATATA [CACACA_site4119],8.97 ± 0.39
13,TATCCTACATTAACAAGTACAAAGAGATCCTACGTA [XGTACX_site4252],8.22 ± 0.45
14,TTTCTCCATATTAAAGTGCATTAATAACAAAAATAA [GTGCAC_site9934],8.655 ± 0.021
15,AACGCCACTTCAATGGCACACACCAATTATTTTTCA [CACACA_site1026],8.41 ± 0.36
16,AAAAAAAAAAAAAATATACACACTAATATATTTTTT [CACACA_site815],8.38 ± 0.56
17,ATATATATATTAATTACACACAAAAAAAAAAAAAAA [CACACA_site1165],8.86 ± 0.3
18,TCATTCGAATAAATTGCACACATGACATCCGTTGTA [CACACA_site2587],8.63 ± 0.3
19,TATTAATAATATAATAGTACTTTCACTGTAAATTTA [XGTACX_site6419],8.35 ± 0.45

row,Sequence,gcPBM binding intensity (ln)
1,GTATAGAGAAAAAACTGTACTTTATATAAATATTTA [XGTACX_site3972],8.34 ± 0.28
2,TATATACAGATATATACACACATATTTATATTTTAT [CACACA_site7734],8.32 ± 0.33
3,ACAGAAAAAAGACACACACACATAATATACATACAT [CACACA_site6991],8.69 ± 0.54
4,CTTAGATATAAAAATTGTACATACATATTTTTGACA [XGTACX_site2107],8.27 ± 0.4
5,TATATATATATATATACACACACACTAATAAAAAAA [CACACA_site8426],10.2 ± 0.21
6,ATTTTTTAAATGAGGCGTACACAAAAATATAATTAC [XGTACX_site7087],9.11 ± 0.36
7,TTTTTTTCGTAAAAAAAAATAATTATTAAATGAAGG [TGCATGCA_negctrl_site212],8.56 ± 0.6
8,TAAACACCCATATAAACACACATATAAACACCCATA [CACACA_site5382],8.84 ± 0.47
9,TTTATTTATTTTTAACGTACGCACACATATAAATAT [XGTACX_site4042],8.8 ± 0.57
10,TATTTTTAATAAAAACGTACGGAATACAAAAAAAAT [XGTACX_site3477],9.07 ± 0.47
11,TATTATAAAATATACACATGCAAAAACAAAATTTAC [TGCATGCA_site1051],9 ± 0.35
12,TAAAATTTATAAACTACACACATATAAATAGTAATA [CACACA_site7708],8.58 ± 0.31
13,TATATACATTGGTATACATGCATTCTCTTTCATACA [TGCATGCA_site734],8.84 ± 0.39
14,TTAAACATATATTAAGCACACACAAACAAAAAAACA [CACACA_site8816],8.86 ± 0.56
15,TAATTAATCGATTTACGCACATGAACAAAAGCACAT [CACACA_negctrl_site1287],8.73 ± 0.2
16,AACATATTTTTTTGTTGTACTTACAATTATAAGCAT [XGTACX_site3056],8.44 ± 0.31
17,TATACCAAATATATGGGTACACAAATATGTTTATTC [XGTACX_site8932],8.49 ± 0.3
18,TATAAAGCAACTGAAACACACAAATTTTTTTTTTTT [CACACA_site3218],8.04 ± 0.46
19,ATTATTTATTTATGTGTGCGCATGTGTGTAAATATT,9.04 ± 0.33

row,Sequence,gcPBM binding intensity (ln)
1,ACTATTTTCTTCAAAACATGCACCACATAAACATAA [TGCATGCA_site200],9.155 ± 0.007
2,CCTTTTTTATTTACAACACACGTAAAGGTTCAAATA [CACACA_site1741],8.73 ± 0.34
3,GTAAATATTAATAAAAGTACATATGTAGCATATGGA [XGTACX_site5219],8.64 ± 0.31
4,AAAAAACACAGACATACACACAAAAAGGTTATAAAT [CACACA_site4222],8.87 ± 0.51
5,ATATATATATATATGTGTACATATTTTTTTTTTTTT [XGTACX_site3425],10.1 ± 0.32
6,AGAAAAAAAAAAAATGCACACATTTTCATTGTCAGT [CACACA_site1935],8.21 ± 0.33
7,TATATGTATTTATATACACACATATTCTTTTTACAC [CACACA_site8320],8.4 ± 0.4
8,TCCTTTTCATCTTGTAGTACGGAAATGTAGCTCCAA [XGTACX_site8563],8.66 ± 0.42
9,AATATTTTGAACAACAGTACTCTTTCTTTCTTTCTT [XGTACX_site7212],8.46 ± 0.53
10,TGTGTAAATATGTATACACACATATCTGATCAATAT [CACACA_site7507],8.46 ± 0.4
11,TATATCTACTTAAAAAGTACGTAAATTATAAGCTAT [XGTACX_site6420],8.38 ± 0.36
12,AATATTGTTCACAAGGTGCTTTTTATTCATACTAAT,8.6 ± 0.32
13,TATGTATAACTCAATGCATGCGAAGGACTATTATTT [TGCATGCA_site222],9.25 ± 0.55
14,ACCTCACAAATGAATACACACAAACATATAGATTTA [CACACA_site6862],8.64 ± 0.37
15,ATATATAAAATTATATGTACATATATCTATTTATAA [XGTACX_site3713],8.29 ± 0.3
16,TTTAAAATTTCTTAATGTACGTAATAAAAAAAAAAA [XGTACX_site4037],8.71 ± 0.38
17,GATTAAAACTTTAACTGTACATAATAATTATCAATC [XGTACX_site5938],8.54 ± 0.46
18,AATAATTATTTGTATAGTACAATATACAAAAGATGA [XGTACX_site4312],8.71 ± 0.38
19,AACTTTTTACAAACAGGTACGCATATATATATATAT [XGTACX_site5081],10.1 ± 0.47
